Here are results for 105 molecules from PubChem BioAssay AID434955 (Southern Research Specialized Biocontainment Screening …, 2010).

The list shows a part of the results. The main result of the screen is listed elsewhere. These columns were measured beside it and carry no call. The list favours compounds with an active or inconclusive main result.

A short description of the test: beta-lactam sensitization of Mtb H37Rv, H37Rv (AID 434955).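 Note: growth measured after seven days incubation then overnight dye step; 0% = bacteria only wells and 100% = bacteria with antibiotic.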 The note with it: M. tuberculosis H37Rv growth with meropenem, percent inhibition; measured here: primary screen without meropenem; at 25 µM.
`O=C(c1ccc(N2C(=O)c3ccccc3C2=O)cc1)N1CCCCC1`: the inhibition (in general, the drop in the measured response relative to a control, in per cent) came out at 4.03%.

As to `O=C(NC(=S)NC1CCCCC1)c1ccccc1`, the inhibition worked out at 6.74%.

Consider `O=C(NCCc1cccnc1)C1CCC(=O)N(Cc2cccc(C(F)(F)F)c2)C1` (stereo not given), for which the inhibition worked out at 0.81%.

As to `CC(=O)c1c(C)[nH]c(C(=O)OCC(=O)Nc2nnc(-c3ccccc3)o2)c1C`, the inhibition worked out at 49.6%.

`O=C(Cc1ccc(Br)cc1)Nc1ccccc1N1CCCC1`: the inhibition came out at 6.06%.

Consider `CC12CCC(=O)N1C(C(=O)Nc1ccc(Br)cc1Cl)CS2` (stereo not given), for which the inhibition was -2.87%.

With `S=c1[nH]nc(COc2ccccc2)n1/N=C/c1cccc(Cl)c1Cl`, the inhibition is -1.79%.

Consider `COc1ccc(CCNC(=O)CN(c2ccccc2OC)S(C)(=O)=O)cc1`, for which the inhibition was -4.02%.

Take `CCCCOC(=O)n1c(SCC(=O)N(CC)CC)nc2ccccc21`: the inhibition came out at 5.01%.

On to `CCOC(=O)CNC(=O)C1c2ccccc2C(=O)N(c2ccc(OC)cc2)C1c1ccc(OC)cc1` (stereo not given), for which the inhibition was found to be 4.46%.

For `C=CCc1cccc(/C=N/NC(=O)C[n+]2ccccc2)c1O`, the inhibition is -4.59%.

`Nc1nonc1C(=O)NCCNCc1cc(Br)ccc1OCc1ccc(F)cc1`: the inhibition is -7.21%.

With `O=C(CCS(=O)(=O)c1ccccc1)NCc1ccccc1`, the inhibition is -5.08%.

Regarding `Cc1c(N2C(=O)CS/C2=N\N=C\c2ccc(Cl)cc2)c(=O)n(-c2ccccc2)n1C`, the inhibition is -1.56%.

For `CCO[C@@H]1OC(C(=O)NCc2nc3ccccc3[nH]2)=C[C@H](c2cn(C(C)=O)c3ccccc23)[C@H]1CCCO`, the inhibition was 3.29%.

Regarding `Cc1ccc(/C=C2/SC(=S)N(CCC(=O)NCCCN3CCOCC3)C2=O)cc1`, the inhibition stood at 3.08%.

As to `Cn1c(SCC(=O)c2c(N)n(C)c(=O)n(C)c2=O)nnc1-c1ccc(F)cc1`, the inhibition is -3.14%.

On to `Cc1cccc(OCC(=O)Nc2nonc2NC(=O)COc2cccc(C)c2)c1`, for which the inhibition is 6.78%.

`CC(C)[C@H](NC(=O)OCc1ccccc1)C(=O)OCc1cc(=O)oc2cc(O)ccc12`: the inhibition turned out to be 5.09%.

Take `CCn1ncc(Cl)c1C(=O)Nc1ccc2c(c1)CCC2`: the inhibition turned out to be 9.86%.

`CN(Cc1nccn1C)C(=O)CC1C(=O)NCCN1Cc1ccc(F)cc1Cl` (stereo not given): the inhibition is -19.6%.

Turning to `CC1CCN(C(=O)Cn2cc3c(n2)CCCC3)CC1`, the inhibition was 5.89%.

As to `CCCc1cc(C(=O)Nc2nccs2)cs1`, the inhibition stood at 85%.

Turning to `CCN(C(=O)C(C)N1C(=O)/C(=C/c2cccs2)SC1=S)C1CCS(=O)(=O)C1` (stereo not given), the inhibition is -6.97%.

Regarding `O=C(CCc1c[nH]c2ccccc12)Nc1ncccc1O`, the inhibition is -4.7%.

As to `O=C(COC(=O)/C=C/c1cccc(Cl)c1)NCCc1ccc(Cl)cc1Cl`, the inhibition is -1.67%.

For the molecule `COc1ccc(C(=O)NC2CC2)cc1OC1CCN(Cc2ccc(Cl)cc2)CC1`, the inhibition is -1.52%.

Consider `Fc1ccc(C2CCNCC2COc2ccc3c(c2)OCO3)cc1` (stereo not given), for which the inhibition was determined as 2.97%.

Take `Cc1ccc(C(=O)NCCn2c(N)c(C#N)c3nc4ccccc4nc32)cc1`: the inhibition amounted to 4.12%.

Consider `CCC(C)NC(=O)c1cn(CC)c2ccc(S(=O)(=O)N(C)C)cc2c1=O` (stereo not given), for which the inhibition worked out at 0.82%.

On to `Cc1onc(NC(=O)NC(=O)c2ccccc2F)c1Br`, for which the inhibition was -4.49%.

On to `Cc1ccc(CN(CC(=O)NCc2ccccn2)S(=O)(=O)c2ccccc2)cc1`, for which the inhibition amounted to 20%.

Turning to `CCCCN(Cc1cc2cc(OC)ccc2[nH]c1=O)S(=O)(=O)c1ccc(C)cc1`, the inhibition is -2.13%.

For `COc1ccc2oc(C(=O)OCC(=O)N3CCC(C)CC3)c(C)c2c1`, the inhibition was determined as 4.58%.

Consider `Cc1noc(C)c1S(=O)(=O)N1Cc2ccccc2CC1C(=O)N(C)C` (stereo not given), for which the inhibition was -6.27%.

In the case of `Cc1cc(C)c2nc(N3CCC(C(=O)NCC4CCCO4)CC3)sc2c1` (stereo not given), the inhibition worked out at 6.48%.

Consider `CCNC(=O)COC(=O)C1C(C(=O)OCC)=C(C)NC(C)=C1C(=O)OCC`, for which the inhibition came to 0.2%.

As for `CN(Cc1cnn(C)c1)C(=O)C1CCC(=O)N(C2CCCCCC2)C1` (stereo not given), the inhibition is 1.01%.

Turning to `COc1cccc(-c2nc3n(n2)C(c2ccccc2Cl)C(C(N)=O)=C(C)N3)c1` (stereo not given), the inhibition is -7.98%.

`N#CCCN1CCN(S(=O)(=O)c2ccc(S(=O)(=O)N3CCCCCC3)cc2)CC1`: the inhibition is 0.31%.

With `CCOC(=O)CNC(=O)/C(=C\c1ccc(F)cc1)NC(=O)c1ccccc1`, the inhibition is -4.73%.

As to `COC(=O)C(OC(=O)c1ccc(OC)cc1)C(=O)OC`, the inhibition is -2.35%.

With `COc1cccc(C2Nc3c(F)cc(Br)cc3C3C=CCC32)c1OC` (stereo not given), the inhibition was -11.4%.

For `CCN(CC)S(=O)(=O)c1csc(C(=O)NC2CCCCC2)c1`, the inhibition worked out at 0.88%.

For `Cc1ccc2c(c1)N(CC(=O)NCCC1=CCCCC1)C(=O)c1cccnc1O2`, the inhibition was -5.91%.

Turning to `CCOc1cccc2sc(N(CCN(C)C)C(=O)c3ccc4ccccc4c3)nc12`, the inhibition was determined as 4.92%.

For `CCn1c(SCc2nc(-c3cccs3)no2)nnc1-c1c[nH]c2ccccc12`, the inhibition came out at 1.66%.

As to `CC(C)OCCCn1c(=S)[nH]c2cc3c(cc2c1=O)OCO3`, the inhibition is -2.43%.

For the molecule `Cc1sc2ncnc(SCC(=O)N3CCCC(C(F)(F)F)C3)c2c1C` (stereo not given), the inhibition is 4.98%.

As for `CC(C(=O)Nc1sc2c(c1C(=O)NCc1ccco1)CCCC2)N1C(=O)c2ccccc2C1=O` (stereo not given), the inhibition was determined as 6.46%.

Regarding `CN(Cc1ccon1)C(=O)CC1C(=O)NCCN1Cc1ccc(F)c(F)c1` (stereo not given), the inhibition was -1.35%.

On to `COc1ccc(NC(=O)c2oc3ccccc3c2NC(=O)C2CC2)c(OC)c1`, for which the inhibition was 3.68%.

As for `Cc1nnc(NC(=O)c2sc3nc(-c4cccs4)cc(C(F)(F)F)c3c2N)s1`, the inhibition amounted to 9.17%.

For the molecule `O=C(CCC(=O)N1CCOCC1)NCCc1ccc(Cl)cc1Cl`, the inhibition turned out to be 0.21%.

As for `COc1cccc(C2CC(c3ccc(Cl)cc3)n3nc(N)nc3N2)c1` (stereo not given), the inhibition is -4.85%.

Regarding `CCN1CCCC1CNC(=O)Cn1nc(C)n2nc(-c3ccccc3)cc2c1=O` (stereo not given), the inhibition was -0.54%.

As to `Cc1cc(=O)[nH]c2c(C)c(Cl)ccc12`, the inhibition was -13%.

On to `COc1ccc(C(=O)N2CCC(n3nccc3NC(=O)C3CCOC3)CC2)cc1` (stereo not given), for which the inhibition was determined as 1.83%.

Consider `CNC(=O)c1c(NC(=O)C2=COCCO2)sc2c1CCC(C)C2` (stereo not given), for which the inhibition was 16.8%.

In the case of `CCN(CC)S(=O)(=O)c1ccc(N/N=C(\C)c2ccc(OC)cc2O)nc1`, the inhibition was determined as 11.6%.

Regarding `CCCn1cc(S(=O)(=O)c2ccc(C)cc2)c(=O)c2cc(OC)ccc21`, the inhibition is 1.5%.

Turning to `CCOc1ccc(-c2cc(C(=O)N3CCCC3)c3ccccc3n2)cc1`, the inhibition is 7.74%.

In the case of `CC1(C)Cc2c(C#N)c(SCc3ccccc3)nc(N3CCOCC3)c2CO1`, the inhibition was 21.1%.

Turning to `Cc1ncsc1CCC(=O)N1CCCC(Nc2ccc(F)c(F)c2)C1` (stereo not given), the inhibition is -0.04%.

Consider `Cc1c(C(=O)N2CCN(Cc3ccccc3)CC2)oc2c1C(=O)CCC2`, for which the inhibition amounted to 1.2%.

Consider `COc1ccc(NC(=O)c2cc3c(s2)CCC3)cc1S(=O)(=O)N1CCOCC1`, for which the inhibition was 3.05%.

On to `COc1ccc(OCc2cc(C(=O)NCC(C)Oc3cccnc3)no2)c(Cl)c1` (stereo not given), for which the inhibition is 17.6%.

Turning to `Cc1ccc(C)c(OCc2cc(C(=O)NC3CCOC(C)(C)C3)no2)c1` (stereo not given), the inhibition is -3.07%.

As to `Cc1c(C(=O)NCc2ccccn2)sc2nc(-c3ccc(F)cc3)cn12`, the inhibition was -9.75%.

Regarding `CCOC(=O)Cn1c(=NC(=O)C2CC2)sc2c(C)cc(C)cc21`, the inhibition came out at 7.17%.

`COc1ccc(OC(=O)c2cccc([N+](=O)[O-])c2)c(C(=O)/C=C/c2cccs2)c1`: the inhibition stood at 29.4%.

Regarding `Cc1sc2ncnc(N3CCC(C(=O)NNC(=O)c4ccccc4Cl)CC3)c2c1C`, the inhibition was -8.75%.

As to `O=C(COC(=O)c1ccc([N+](=O)[O-])s1)NCc1ccc(F)cc1`, the inhibition is 15.1%.

Take `Cc1ccc(Oc2nc(CN3CCOCC3)nc3sc4c(c23)CCC(C)C4)cc1C` (stereo not given): the inhibition was found to be 99.4%.

For the molecule `C=CCN=c1scc(-c2ccc(F)cc2)n1/N=C/c1ccccn1`, the inhibition came out at 34.9%.

For `COc1ccc(C(=O)N2CCCC(Nc3ccc(C)c(C)c3)C2)c(OC)n1` (stereo not given), the inhibition was 6.57%.

With `O=C(Cc1ccc(Cl)cc1)Nc1cccc(-c2nnc(-c3ccco3)o2)c1`, the inhibition is -2.08%.

For the molecule `CCOCC(=O)N1CCN(c2ccc(F)cc2)CC1`, the inhibition is 20.8%.

Turning to `Cc1ccc(C)c(CSc2nnc(C)c(=O)n2N)c1`, the inhibition is -2.89%.

As for `COc1ccc(-c2cc(C(F)(F)F)nc(SCC(=O)Nc3sc4c(c3C#N)CCC4)n2)cc1`, the inhibition turned out to be 44.3%.

With `COc1ccc(N2CCN(C(=O)c3cccc(NC4=NC5CS(=O)(=O)CC5S4)c3)CC2)cc1` (stereo not given), the inhibition is 6.17%.

On to `CC(C)NC(=O)Cn1c(=O)n(CC(=O)N2CCCCC2)c(=O)c2sccc21`, for which the inhibition came to 6.81%.

With `CS(=O)(=O)N(CC(=O)NCc1ccc2c(c1)OCO2)c1ccccc1`, the inhibition is -3%.

As for `COC(=O)c1ccccc1SCC(=O)Nc1ccc(N2CCOCC2)cc1`, the inhibition was -1.55%.

As for `CCN(CCN(C)C)C(=O)Cn1ncc2c1-c1cc(C)ccc1OC2`, the inhibition was -3.45%.

As for `O=C(c1sc2cccc(Cl)c2c1Cl)N1CCN(CCc2ccccn2)CC1`, the inhibition is 5.34%.

Regarding `CCCCn1nc2cc(C(=O)NCC34CC5CC(CC(C5)C3)C4)ccc2c1OCC`, the inhibition was 50.9%.

`O=C(COc1ccc(S(=O)(=O)Nc2ccccc2)cc1)NCc1cccnc1`: the inhibition is 3.34%.

Take `CC(C)C(NC(=O)CC12CC3CC(CC(C3)C1)C2)C(=O)O` (stereo not given): the inhibition was 1.89%.

Take `CCCCSc1nc2sc3c(c2c(=O)n1-c1ccccc1)CCN(C)C3`: the inhibition was 69.7%.

As for `O=C(CCC1CCCCC1)NCc1ccc(F)cc1`, the inhibition worked out at 2.93%.

As for `COc1ccc(OC)c(C(=O)N2CCCC(Nc3ccc(F)cc3)C2)c1` (stereo not given), the inhibition came out at 3.07%.

With `Cn1c(SCC(=O)OC2CCCCC2)nnc1-c1ccc2c(c1)OCO2`, the inhibition was 27.1%.

As to `COc1ccc(Cl)cc1NC(=O)c1cccc(N2C(=O)C3CC=CCC3C2=O)c1` (stereo not given), the inhibition worked out at 0.51%.

With `CCOc1ccc(NC(=O)CC2C(=O)NCCN2C(=O)Nc2ccccc2)cc1` (stereo not given), the inhibition was -6.77%.

Regarding `CN[C@@H]1[C@H](O)[C@H](NC)[C@H]2O[C@@]3(O)C(=O)C[C@@H](C)O[C@H]3O[C@@H]2[C@H]1O`, the inhibition was determined as 5.05%.

With `Cc1ccc(NC(=S)Nc2ncccc2C)c(C)c1`, the inhibition is 7.16%.

Consider `COc1ccccc1-n1c(/C=C/c2ccccn2)nc2ccccc2c1=O`, for which the inhibition was -5.93%.

For `O=S(=O)(c1ccccc1)N1CCN=C1SCc1c(F)cccc1Cl`, the inhibition stood at 8.46%.

In the case of `CCn1c(=O)c2ccccc2n2c(SCC(=O)N3CCCc4ccccc43)nnc12`, the inhibition is -8.56%.

On to `CCCN(CCC)C(=O)CSc1ncccc1C(=O)O`, for which the inhibition stood at 2.67%.

With `COc1ccc(-c2csc(NC(CO)c3nc4ccccc4n3Cc3ccc(C)cc3)n2)cc1` (stereo not given), the inhibition stood at 25.6%.

As for `O=C(CSc1ncccc1C(=O)O)NCCC1=CCCCC1`, the inhibition stood at 4.65%.

On to `CCOC(=O)C1CCN(S(=O)(=O)c2c(Cl)ccc3nonc23)CC1`, for which the inhibition stood at 44.7%.

As to `O=C(N/N=C/c1c(O)n(Cc2ccc(F)cc2)c(=S)[nH]c1=O)c1ccncc1`, the inhibition was 58.9%.
